The other results are listed elsewhere or left out. The energies were worked out here from pooled read counts, against the library average; single values are noisy.
Biological target: T1, Pho4 (S. cerevisiae) (UniProt P07270)
T1 sequence: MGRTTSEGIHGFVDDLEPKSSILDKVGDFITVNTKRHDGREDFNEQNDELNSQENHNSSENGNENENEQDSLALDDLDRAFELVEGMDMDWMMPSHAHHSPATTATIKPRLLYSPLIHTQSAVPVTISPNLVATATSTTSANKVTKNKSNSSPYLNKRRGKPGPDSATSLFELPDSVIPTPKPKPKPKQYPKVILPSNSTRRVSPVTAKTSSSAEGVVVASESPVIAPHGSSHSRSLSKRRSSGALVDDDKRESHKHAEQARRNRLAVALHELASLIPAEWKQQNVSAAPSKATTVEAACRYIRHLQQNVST
Test: relative binding free energy (BET-seq); higher = weaker binding
Details: reference: library average

| Sequence | relative binding free energy [kcal/mol] |
| --- | --- |
| AGATGCACGTGGTGCA | -0.14 |
| AGGATCACGTGGTGAC | 0.23 |
| ACTTGCACGTGGCGGT | -0.01 |
| ATTTACACGTGGCTTT | 0.07 |
| CTTTTCACGTGAGTTT | 0.32 |
| TTTTTCACGTGGCGGT | 0.31 |
| CGCTACACGTGGTGGG | 0.02 |
| TCATTCACGTGGGGTA | 0.15 |
| CTTAGCACGTGTGAGG | 0.03 |
| CTGTACACGTGGGAAG | 0.06 |
| GTTGCCACGTGCGGGG | -0.14 |
| AGAGGCACGTGAGATG | 0.05 |
| TGTATCACGTGTGAGT | 0.19 |
| AGTAACACGTGGAGTT | 0.05 |
| TATAACACGTGGGCGT | -0.2 |
| AAGTTCACGTGTGTAC | 0.51 |
| TGTCTCACGTGTATTA | 0.17 |
| TAGTGCACGTGTTGGT | 0.03 |
| TATCACACGTGTTGCT | 0.26 |
| TGGGTCACGTGAGTAA | 0.29 |
| CGGTGCACGTGCTGGC | 0.03 |
| TGTTCCACGTGGATGT | 0.09 |
| GGTTGCACGTGATTGC | 0.15 |
| GTTCACACGTGATAGG | 0.34 |
| GATTTCACGTGGTACG | 0.38 |

| Sequence | relative binding free energy [kcal/mol] |
| --- | --- |
| TGAGTCACGTGAAGTC | 0.33 |
| GCGTTCACGTGGAGGT | 0.17 |
| AGGTTCACGTGTGAAT | 0.25 |
| TATGGCACGTGTACGA | -0.02 |
| CGTGTCACGTGGAGAG | 0.11 |
| TTGCACACGTGAAGTT | 0.33 |
| CGTGTCACGTGGGGTC | -0.07 |
| CGTTTCACGTGGCGGA | 0.29 |
| TGTTTCACGTGGAGTG | 0.34 |
| CTAGTCACGTGTGCGG | 0.11 |
| GTGGTCACGTGCATAT | 0.06 |
| TGAAACACGTGATAGT | 0.14 |
| TTAGTCACGTGAGCTA | 0.25 |
| TATTTCACGTGCTGCT | 0.27 |
| GGGGCCACGTGCGGTT | -0.15 |
| GTCTTCACGTGATATG | 0.45 |
| GTGCCCACGTGGTGGG | -0.16 |
| CTGCTCACGTGGAGGG | -0.03 |
| ATGTGCACGTGCAAGT | -0.03 |
| GAGGACACGTGGATAG | 0.15 |
| CGGTACACGTGGTGTT | -0.02 |
| TATGTCACGTGTGGGA | 0.16 |
| TCTTGCACGTGTTGCG | -0.03 |
| ATCAGCACGTGAGGGG | 0.1 |
| GATTTCACGTGTTATG | 0.43 |

| Sequence | relative binding free energy [kcal/mol] |
| --- | --- |
| TCGAGCACGTGTTTAG | -0.02 |
| AAGTTCACGTGGTCGA | 0.27 |
| ATTTTCACGTGACGAT | 0.36 |
| TGGATCACGTGTTAGC | 0.33 |
| GGTGTCACGTGGGCCA | -0.19 |
| GAGAGCACGTGTTAAG | -0.06 |
| AGGTTCACGTGGGGAA | 0.2 |
| AGTAGCACGTGTTGCT | -0.14 |
| GGTTTCACGTGTCGGA | 0.3 |
| TTTAGCACGTGTATTC | -0.08 |
| TCTGCCACGTGAAGGT | 0.23 |
| TTGTGCACGTGGTAAT | 0.04 |
| TGTTGCACGTGTATTG | 0.06 |
| GTTACCACGTGGGTGC | -0.12 |
| TAAATCACGTGTGGTA | 0.12 |
| ATGGACACGTGGGCAG | -0.2 |
| TATAACACGTGCGTGT | -0.21 |
| CGGCGCACGTGGTAAG | 0.1 |
| GTCTTCACGTGGCGTG | 0.14 |
| CGTAACACGTGGTTGG | -0.1 |
| ATGGTCACGTGAGGTA | 0.24 |
| TCTGTCACGTGGTATT | 0.04 |
| AGGGTCACGTGTGGCA | 0.16 |
| GTATCCACGTGTTGGG | -0.02 |
| GCGTGCACGTGAGTAT | 0.26 |

| Sequence | relative binding free energy [kcal/mol] |
| --- | --- |
| CCAGTCACGTGGGGGT | -0.16 |
| TTTGACACGTGTTGGC | 0.08 |
| TTTAGCACGTGATTCA | -0.04 |
| GTTCTCACGTGGACGG | 0.38 |
| GTAAACACGTGGTGGG | 0.01 |
| TGGGACACGTGGTTCA | 0 |
| ATCTGCACGTGGGTTT | -0.01 |
| TGGGGCACGTGGTCGA | -0.22 |
| AATGGCACGTGAGATT | 0.1 |
| TTAATCACGTGGTGCA | 0 |
| CTGAGCACGTGGGTAG | -0.15 |
| GAGTGCACGTGATTGG | 0.07 |
| TGGAGCACGTGGGTGC | -0.04 |
| ATATGCACGTGTAATG | 0.11 |
| CGAGGCACGTGGGGGG | -0.3 |
| GATTGCACGTGTATGT | -0.02 |
| TGCGGCACGTGTATAT | -0.13 |
| TTTATCACGTGATAAT | 0.22 |
| CTTTACACGTGTTTAG | 0.05 |
| CGGAGCACGTGACGTG | 0.13 |
| TTAAGCACGTGATGTC | 0.04 |
| TCGGACACGTGGGGCG | 0 |
| TGTTCCACGTGAAGTT | 0.27 |
| GGGGGCACGTGATCAA | 0.07 |
| TTAACCACGTGTGTTT | -0.04 |

| Sequence | relative binding free energy [kcal/mol] |
| --- | --- |
| CTGGACACGTGTAGGT | 0.03 |
| TAGGTCACGTGAGTAA | 0.32 |
| CGGGGCACGTGCGGCT | -0.31 |
| TGAATCACGTGATTAG | 0.16 |
| AGGCGCACGTGGGGCT | -0.34 |
| CGATGCACGTGGGGTT | -0.18 |
| AGACTCACGTGGGTTA | 0.14 |
| TGGGTCACGTGATGTT | 0.13 |
| TTGGGCACGTGGTGCG | -0.13 |
| ACTGGCACGTGGGGCA | -0.14 |
| TTCATCACGTGATGTA | 0.15 |
| GAGTGCACGTGATGTG | 0.26 |
| TTGAACACGTGAAGTG | 0.29 |
| TTCAGCACGTGGGTGT | -0.26 |
| GGGGTCACGTGGCGTA | 0.07 |
| ATGTACACGTGGGTTC | -0.05 |
| ATTGGCACGTGCGGTG | -0.09 |
| GTCAGCACGTGGGTTT | -0.07 |
| AAGGACACGTGATGTG | 0.07 |
| AAAAGCACGTGTTATG | -0.05 |
| ATCGGCACGTGCTTTG | 0 |
| AATGTCACGTGCATTT | 0.12 |
| GTTGACACGTGAGTAT | 0.13 |
| TAGATCACGTGACGTG | 0.25 |
| AGCTGCACGTGAGAGG | 0.19 |

| Sequence | relative binding free energy [kcal/mol] |
| --- | --- |
| AGAGGCACGTGTATGG | -0.23 |
| GGGCTCACGTGGGTTG | 0.12 |
| CTTTGCACGTGGGTGG | -0.13 |
| GATGTCACGTGAAAGG | 0.31 |
| TGTTTCACGTGTGTCT | 0.15 |
| GGGTTCACGTGAAGGC | 0.33 |
| CCGTGCACGTGGAGGT | 0.03 |
| TACATCACGTGTGGAG | 0.14 |
| TAGAGCACGTGGTTAT | -0.05 |
| TGGCGCACGTGGCGGC | -0.19 |
| GTTCACACGTGGTGCG | -0.04 |
| GGTTACACGTGTGAGG | 0.23 |
| ATTTGCACGTGGCTTG | -0.19 |
| GGAGGCACGTGTAGCT | -0.06 |
| GGTTCCACGTGGGTGC | 0.08 |
| AGTCACACGTGGAGTG | -0.1 |
| TAGGACACGTGAGTGT | 0.25 |
| TATATCACGTGTGAGA | 0.19 |
| ATGGACACGTGGACGT | 0.05 |
| AGGTCCACGTGGTGGG | -0.07 |
| GTATTCACGTGATTTC | 0.45 |

Source: the BET-seq Pho4 binding data (Le et al. 2018)
